Results published in the supplement of paper PMC11417369.
± gives the standard deviation of the averaged measurements. Some of the results follow.

Test system: PfAP2-LT AP2 domain (GST-tagged)
Experiment: gcPBM binding intensity (ln(normalized median fluorescence intensity)); higher = stronger DNA binding
Summary of the method: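 Binding intensity is defined as the maximum Masliner-normalised natural-log median intensity across replicate spots for either probe orientation. It was measured on an Agilent 4 × 180k array of primer-extended double-stranded 36-bp intergenic genomic probes and negative controls, to which GST-tagged P. falciparum DNA-binding domains made in E. coli were applied for 1 h in 1× PBS with 1% milk, 0.2 mg/ml BSA, 0.5% salmon testes DNA and 0.03% Triton X-100. Detection was by Alexa488 anti-GST antibody and scanning at 488 nm.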

Sequence	gcPBM binding intensity (ln)
AACTTTGAGACATAGTGTACTTACACAATCTTAATA [XGTACX_site3712]	8.65 ± 0.45
CATATTTGATACAAGTGTACTTTATTTAAAAATTCT [XGTACX_site8408]	8.5 ± 0.41
TTTCAAAAAAATAGCTATATTTATATTAATGCACGA [TGCATGCA_negctrl_site63]	8.49 ± 0.4
TATATAACTGTCTTCAGTACACAATAAATAAAAATA [XGTACX_site8856]	8.69 ± 0.4
TAATAAAAATAAAATTGTACTAATAACATTTCATTA [XGTACX_site3703]	8.27 ± 0.45
AAAGGTGTATATAATACACACGTGTGATTAAAATTG [CACACA_site8104]	9.3 ± 0.28
GAAAAAATAAAATAAAGTACATAACTATAATAAAAA [XGTACX_site4807]	8.88 ± 0.7
TACTCCTCAATATTATGTACATATAATAGTTATAAA [XGTACX_site8551]	8.47 ± 0.46
CTTACACCCATATATACACACATGTATATTTTATAT [CACACA_site4462]	9.21 ± 0.4
ATATATAAACACTCTTGTACATAATAATGTATATAT [XGTACX_site2451]	8.87 ± 0.33
TCGTATCTATTGAGGGTGCCTCTATAATTGATACAA [GTGCAC_site9636]	8.38 ± 0.35
TAATATAATATATGCACACAAATATGTATTTATGTG [CACACA_site5210]	9.88 ± 0.18
AGTAAATAATAGATCGCATGTAATAACTAGTAGGAA [TGCATGCA_site948]	9.2 ± 0.48
ATTATAAAGACATATACACACATACGTACATACATA [CACACA_site5893]	9.18 ± 0.3
ACAATTGAAGAAATACGTACATAAAGAAAAACTAGT [XGTACX_site820]	9.15 ± 0.45
AAAATCACAAGACACACACACACAAAAAAAAAAAAA [CACACA_site6791]	9.94 ± 0.58
AGTATAAAATAAATGTGTACACAAGAAAATATGTTA [XGTACX_site8381]	9.18 ± 0.57
ATATATATATGTATGTGTCCACAAGGAGATATATAT [XGTACX_site783]	9.43 ± 0.3
AAAATATTTTAATGTTGTACATTAATATATTATATA [XGTACX_site2513]	8.46 ± 0.4
TGTATTAAATTTTGAACACACAAAATAAAACATATA [CACACA_site1672]	8.73 ± 0.43
AACAGATAAAAGGGTACACACATATATACCTGTACA [CACACA_site4285]	9.19 ± 0.42
TGTACATTCGGAGTAAAAAAAAATTTATACAATTAC [CACACA_negctrl_site1451]	8.54 ± 0.4
TACATAAATATATGTGTGCACAATTTCGTATATTTA [GTGCAC_site9859]	9.15 ± 0.4

Sequence	gcPBM binding intensity (ln)
TAAAATATAATTAGCACACATATATAAAATATATAT [CACACA_site4093]	8.79 ± 0.37
TTTTTTTTTTTTTGGGGTACATTTTAATTAATATTA [XGTACX_site4866]	8.82 ± 0.19
GTTCAAAATATGAACACACACATATATATATATATA [CACACA_site2057]	10 ± 0.014
TTTCGTAATATGCGTGTGCACAATGAGTCCATATCT	9.24 ± 0.39
ATCTACATATATTATTGTACATTGTTAAAAATTTAT [XGTACX_site7769]	8.77 ± 0.41
GTAAATATGTTTATTAGTACACATATGAAAATAAAT [XGTACX_site5820]	8.89 ± 0.45
GTTGTTTCTATAAATTGTACTTAAATATAATTATAT [XGTACX_site585]	8.73 ± 0.35
ATATATTGTATGTGCTCACACATGTTTCGATATTAT [CACACA_site4336]	9.16 ± 0.35
TCTTTTTTTTTACATACTTTTTTCCTTTTTTTTTTA [CACACA_negctrl_site1429]	8.58 ± 0.61
ACGCACGAAATAAATACATGCATATTGTAAAAATTA [TGCATGCA_site310]	8.88 ± 0.42
GGGAATATATTCAATTGTACATTCTTATTTTATCCA [XGTACX_site8480]	8.82 ± 0.45
CTAGACTTTTTACAATGTACATATTTATGTATTATT [XGTACX_site1833]	8.99 ± 0.34
TCTTGTAGATATATTTGTACATATATTTATGGGTAT [XGTACX_site1139]	8.88 ± 0.4
TTTTTTCATAAATAATGTACATATATATATATATAT [XGTACX_site3620]	9.16 ± 0.13
ATATTATTTATAAGTTGTACGGTATAATATAATATA [XGTACX_site5371]	8.47 ± 0.36
AAAATTTTTTACTTTACACACATTTTGTATATTTTG [CACACA_site1730]	9.15 ± 0.38
AAAAAATATATATTAACACACACACTAATAAAAAAA [CACACA_site8366]	9.56 ± 0.17
TATTTAATGCAAAAACGTACATAAATAACATTCACA [XGTACX_site5356]	8.72 ± 0.36
TATAAACACCCATATAAACACACATACATACATACA [CACACA_site8791]	9.51 ± 0.33
TATATATATATTAGTGGTACAAGATTTTTTTCTTTT [XGTACX_site4619]	8.52 ± 0.49
CAACTCTTATTTAATTATATGAATTAATTTATATGA [CACACA_negctrl_site200]	8.42 ± 0.37
TGCATAAATTTATGCACACATAAAAAAAAAAAAAAA [CACACA_site2923]	8.91 ± 0.44
